Assay results from PubChem BioAssay AID1508623 (National Center for Advancing Translational Sciences (NCATS), 2021).
The whole screen tested about 48,000 compounds, of which about 450 (0.94%) were called active. About 19% were inconclusive and are not listed. The call rests on the fitted dose curve; in most records, active means well fitted inhibition curve with a large enough effect; inconclusive means small, poorly fitted or top-dose-only effect; inactive means no such curve, though single readings can be large or run the other way. The list shows a part of the results.

Experiment: Primary qHTS for Identification of Small Molecule Inhibitors of Huntingtin Promoter Activity; further: nearly all actives have a fitted effect of over 50% in size
Details: HEK293 HTT promoter firefly luciferase reporter (activity 0% = vehicle and -100% = no light), 24 h; series mostly up to 57.5 µM; activity change, negative = inhibition: at the top concentration
From the text: Assay Provider: Russell L. Margolis M.D.
Department Neurology, Johns Hopkins University School of Medicine, Baltimore, MD
Huntington's Disease (HD) is a neurodegenerative disorder caused by a CAG repeat expansion in exon 1 of huntingtin (HTT). While there are currently no disease-modifying treatments for HD, recent efforts have focused on development of nucleotide-based therapeutics to lower HTT expression. As an alternative to siRNA or oligonucleotide methods, we hypothesized that suppression of HTT expression might be accomplished by small molecules that either (1) directly decrease HTT expression by suppressing HTT promoter activity or (2) indirectly decrease HTT expression by increasing the promoter activity of HTT-AS, the gene antisense to HTT that appears to inhibit expression of HTT.
We developed and employed a high throughput screen for modifiers of HTT and HTT-AS promoter activity using luminescent reporter HEK293 cells; of the 52,041 compounds tested, we identified 898 replicable hits. We used a rigorous stepwise approach to assess compound toxicity and the capacity of the compounds to specifically lower huntingtin protein in 5 different cell lines, including HEK293 cells, HD lymphoblastoid cells, mouse primary neurons, HD iPSCs differentiated into cortical-like neurons, and HD hESCs. We found no compounds which were able to lower huntingtin without lowering cell viability in all assays, though the potential efficacy of a few compounds at non-toxic doses could not be excluded.
SEQUENCE No. (1, 2, 3, etc.); […] (e.g., Cells, Incubation, Reagent, etc.); VALUE and DESCRIPTION.
1; Reagent; 4 uL; 2,500 Hek293 luciferase reporter cells per wells
3; Compound; 23 nL; Control inhibitor / compound library
5; Reagent; 2.5 uL; Firefly Luc reagent; Dual-Glo Luciferase Reporter Assay System (Promega)
6; Time; 10 min; room temperature incubation
7; Detection; Luminescence; FLuc
NOTES (numbers refer to sequence above)
1; High-throughput screening, measuring luminescence from a Hek293 luciferase reporter, was performed in 1,536 well white-walled tissue-culture treated plates. 2,500 cells were plated in 4 µL of Opti-MEM per well using a Multidrop Combi Reagent Dispenser (ThermoFisher).
2; Assay plates were cultured for 24 hours.
3; Control inhibitor (PTC124; final concentration of 50 uM) and compound library (at final concentrations of 460 nM - 57.5 uM) were added to the assay plate using the Kalypsis Pintool Robotic System equipped with 1536 pinheads.
4; Cells were then incubated for 24 hours at 37 degrees C prior to luminescence measurements.
5; In all cases, luminescence was measured using the Dual-Glo Luciferase Reporter Assay System (Promega) following the manufacturer's instructions.
6; Room temperature incubation.
7; Luminescence signal was obtained using the PerkinElmer ViewLux plate reader. Results were normalized to vehicle control (0% activity) and zero RLU (-100% activity).

Activity change, negative = inhibition, inactive:
COc1ccc(Cn2c(SCC(=O)N(C)Cc3ccccc3)nc3ccccc32)cc1 4.19%
Cc1ccc(NC(=O)Cn2c(=O)nc(-c3ccccc3)c3ccccc32)cc1F -15.4%
Cc1cccc(-c2noc(-c3ccc(N4CCOCC4)c([N+](=O)[O-])c3)n2)c1 -14.8%
O=C(Nc1cnc(N2CCN(c3ccccc3)CC2)c(C(=O)O)c1)c1cccs1 -8.26%
CC1CCCCN1C(=O)c1cc(-c2ccc(Br)cc2)on1 (stereo not given) 71.6%
COc1ccc(C2N=C(N)Nc3nc4ccccc4n32)cc1 (stereo not given) -17.9%
CC1=C(C(=O)N2CCN(c3cccc(Cl)c3)CC2)C2(CCCCC2)OC1=O -13.1%
CCOC(=O)C1CCN(c2nc3c(S(=O)(=O)c4ccc(C)c(C)c4)nnn3c3ccc(Cl)cc23)CC1 -14.3%
CCN(C(=O)c1cc2c(=O)oc3ccc(C)cc3c2s1)c1ccccc1C -10.5%
CCN(CC)S(=O)(=O)c1ccc2nc(NC(=O)c3cncc(Br)c3)sc2c1 -21.4%
Cc1cccn2c(=O)c(C(=O)NC(C)c3ccccc3)cnc12 (stereo not given) 7.3%
COc1ccc(N2CCN(C(=O)CSc3n[nH]c(-c4ccccc4Cl)n3)CC2)cc1 -14.2%
Cc1ccc(C(=O)c2cn(Cc3ccc(Cl)cc3)c3nc(C)ccc3c2=O)cc1 -13.9%
Cc1cc(C)c(NC(=O)C(C)n2nnc3sc4c(c3c2=O)CCCC4)c(C)c1 (stereo not given) 15.7%
Cc1ccc(C)c(CN2C(=O)c3ccccc3S(=O)(=O)c3ccc(C(=O)NCCC4=CCCCC4)cc32)c1 -14.8%
Cc1cc(NC(=O)CN2C(=O)c3cccnc3Sc3ccccc32)ccc1Br 0.702%
COc1ccc(OC)c2sc(N(Cc3cccnc3)C(=O)c3ccco3)nc12 -29.9%
CCc1ccccc1NC(=O)Nc1nnc(N(CC)c2ccccc2)s1 -17.5%
CCN1CCN(c2ncc3c(n2)CC(c2ccccc2O)CC3=O)CC1 (stereo not given) -15.3%
Cc1ccc(CNC(=O)c2cc(-c3ccc(Cl)cc3)on2)cc1 16.5%
Cc1ccc2oc(=O)c(S(=O)(=O)c3ccc(C(C)(C)C)cc3)cc2c1 -19.6%
CN(C)c1ccc(CNC(=O)CN2CCSc3ccc(S(=O)(=O)N(C)C)cc32)cc1 -28.3%
Cc1ccc(CNC(=O)CNS(=O)(=O)c2cccs2)cc1 0.29%
Cc1ccc(NC(=O)C2CCN(c3nn4cc(-c5ccc(C)cc5)nc4s3)CC2)cc1 19.4%
CCN(c1ccccc1)S(=O)(=O)c1nnc(NC(=O)COc2cccc(C)c2)s1 -7.2%
CC(C)(C)c1ccc(C(=O)Nc2sc3c(c2C#N)CCC(C(C)(C)C)C3)cc1 (stereo not given) 4.29%
CCOc1ccc(NC(=O)Cn2c(=O)n(CC(=O)NCc3ccccc3Cl)c(=O)c3sccc32)cc1 -12.4%
COc1cc(OC)c(NS(=O)(=O)c2c(C(=O)N3CCC(C)CC3)c(C)n(C)c2C)cc1Cl -18.5%
Cc1nnc(NC(=O)CSCc2cc(=O)c3ccccc3[nH]2)s1 -0.593%
COc1ccc(CCNC(=O)CCn2c(=O)c3ccccc3n(Cc3ccccc3)c2=O)cc1OC -12.7%
CC(C)c1nn2c(=O)cc(COC(=O)c3ccccc3NC(=O)c3cccc(Cl)c3)nc2s1 -14.8%
Cc1nc2ccn(Cc3cccnc3)c(=O)c2cc1C(=O)N1CCN(c2ccc(F)cc2)CC1 -16.3%
COC(=O)c1ccccc1NC(=O)c1cnc2c(-c3cccc(C)c3)c(C)nn2c1C -12.4%
CN(C)CCNc1oc(-c2ccc(COc3ccc(Cl)cc3)o2)nc1C#N -13.4%
Cc1cc(C)cc(Oc2nc3c(C)cccn3c(=O)c2/C=C(\C#N)c2nc3ccccc3s2)c1 -12.6%
COc1ccc(CCNC(=O)C(C)n2c(=O)cc(C(F)(F)F)c3c(C)nn(C)c32)cc1OC (stereo not given) -17.3%
COc1ccc(N2CCN(Cc3nnc(-c4cccc(Br)c4)o3)CC2)cc1 -5.6%
CCS(=O)(=O)N1CC(=O)N(c2ccc(Cl)cc2)C(C)(C(=O)NC2CCCCCC2)C1 (stereo not given) -13.7%
COc1ccc(CCn2c3c(c(=O)[nH]c2=O)C(NC(=O)c2ccc(C(C)(C)C)cc2)(C(F)(F)F)C(=O)N3)cc1OC (stereo not given) -18.5%
COc1ccccc1Cc1nc2ccccc2nc1SCC(=O)N1CCN(c2ccccc2)CC1 0.516%
COc1cccc(NC(=O)/C(C#N)=C/c2c(C)n(Cc3ccc(Cl)cc3)c3ccccc23)c1 -26.2%
CCOc1ccc(Nc2nc3c(S(=O)(=O)c4ccc(C(C)C)cc4)nnn3c3ccsc23)cc1 -5%
Cc1cc2nc(-c3ccc(NC(=O)c4cc5ccccc5o4)cc3)oc2cc1C 44.5%
Cc1ccccc1CN1C(=O)c2ccccc2S(=O)c2ccc(C(=O)NCc3ccc4c(c3)OCO4)cc21 (stereo not given) -17.7%
COc1cccc(CNC(=O)CCC(=O)N2CC(C)Sc3ccccc32)c1 (stereo not given) -19.5%
COc1ccc(CNC(=O)C(=O)Nc2cc(Cl)ccc2OC)cc1 -11% [at 11.5 µM]
COc1ccc(N2CCN(S(=O)(=O)CCNC(=O)c3c(F)cccc3Cl)CC2)cc1 -17.8%
CC(=O)Nc1cc(C(=O)Nc2ccc3c(c2)N(C)C(=O)c2ccccc2S3)ccc1C -7.1%
Cc1ccc(S(=O)(=O)c2nnn3c2nc(N2CCC(C(N)=O)CC2)c2cc(Cl)ccc23)cc1C -9.39%
Cc1nc2c(c(C)nn2C(C)(C)C)c(C)c1CCC(=O)Nc1ccc(Br)cc1Br -0.639%
CCC(=O)Nc1cc2nn(-c3ccc(C)cc3)nc2cc1C -61.7%
O=C(CCCN1CCC(O)(c2ccc(Br)cc2)CC1)c1ccc(F)cc1 1.48%
Cc1ccc(NC(=O)[C@@H](c2ccccc2)N2Cc3ccccc3C2=O)cc1F -29%
CCCc1nn2c(=O)cc(COC(=O)c3ccco3)nc2s1 -25.2%
COc1ccc(CCNC(=O)Cn2c(=O)c3cccn3c3ccccc32)cc1OC -9.73%
CCCCOc1ccccc1C1CC(=O)Nc2cc(OC)c(OC)cc21 (stereo not given) -26%
CCOC(=O)Cn1c(=O)n(CC2CCCO2)c2nc(-c3ccc(CC)cc3)nc(C(N)=O)c21 (stereo not given) -11.4%
O=C(CSc1ncc2c(n1)-c1ccc(Cl)cc1N(Cc1ccccc1)S2(=O)=O)Nc1ccccc1C(F)(F)F 16.1%
COC(=O)c1c(NC(=O)/C=C/c2ccc(OC)c(OC)c2)sc2c1CCC2 -6.51%
CCN(CC)c1cc2c(cc1F)c(=O)c(S(=O)(=O)c1ccccc1)cn2C -15.5%
